Results from PubChem BioAssay (Tox21).
Where “and” joins values, the source holds several entries; their conditions need not be identical. Identical values can stand only once. The inconclusive results got no clear call from the source; some entries with a clear call stand among them for comparison. For some of these results: Potencies of inconclusive entries are doubtful fits and often do not repeat. Calls of active or inactive are those of the source. Unless noted, calls follow the shape of the dose curve; as a rule, active = well fitted curve in the direction sought with a large enough effect in the repeat runs; inconclusive = weak or mixed curves; inactive = no such curve, though single readings can be large; an effect the other way counts as inactive or inconclusive.

Experiments:
[1] = A CellTox Green Cytotoxicity Assay to monitor cytotoxicity in HepG2 cells - 8 hour (AID 1224890); also: potency is read from the fitted curve at half-maximal effect; nearly all actives have a fitted effect of over 45% in size
Procedure, shortened: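 Continuous culture of HepG2 cells with a membrane-impermeant DNA dye; rising fluorescence marks dead cells. Compound exposure lasted up to 40 h at 37 C, with reads every 8 h from 0 h.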

[2] = target: Estrogen receptor (Homo sapiens) (UniProt P03372); experiment: qHTS assay to identify small molecule antagonists of the estrogen receptor alpha (ER-alpha) signaling pathway using the BG1 cell line in the presence of 0.1 nM 17-beta-estradiol (AID 1259244); also: potency is read from the fitted curve at half-maximal effect; nearly all actives have a fitted effect of over 50% in size
Procedure, shortened: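 Quantitative high-throughput screen in VM7Luc4E2 cells: compound plus 0.1 nM E2 (final), 22 h, 37C, 5% CO2; ONE-Glo added, 30 min room temperature, luminescence measured.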

[3] = qHTS assay to identify small molecule HDAC inhibitors (AID 1259364); also: potency is read from the fitted curve at half-maximal effect; nearly all actives have a fitted effect of over 45% in size
Procedure, shortened: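 Endogenous HDAC class I/II activity was measured in wild-type HCT-116 cells by HDAC-Glo luminescence after 2 h compound treatment.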

[4] = qHTS assay to identify small molecule antagonists of the sonic hedgehog signaling (Shh) pathway (AID 1259369; calls by dose curve; also: potency is read from the fitted curve at half-maximal effect; nearly all actives have a fitted effect of over 45% in size)
Procedure, shortened: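 Screening used 3T3Gli1-Luc cells at 2,000 per well, compounds delivered in DMSO, and conditioned medium as agonist stimulus; plates incubated 24hr at 37 C and 5% CO2 before a 30min luciferase step.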

[5] = target: Estrogen receptor beta (Homo sapiens) (UniProt Q92731); experiment: qHTS assay to identify small molecule agonists of the estrogen receptor beta (ER-beta) signaling pathway (AID 1259377; active = well fitted activation curve with a large enough effect in the signal ratio in the repeat runs, not every such curve was filed as active; inconclusive = weak or mixed curves, or effect the other way; the % refers to the signal ratio; also: potency is read from the fitted curve at half-maximal effect); details: ER-beta-UAS-bla HEK293T, beta-lactamase FRET ratio, 16 h; activation: at 92.4 µM (top of the series) unless noted
Procedure, shortened: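 Read-out: beta-lactamase FRET fluorescence. Cell line: ER-beta-UAS-bla HEK293T in 2% charcoal-stripped FBS. Exposure: 16 hr at 37C. Substrate step: 2 h at room temperature.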

[6] = target: Androgen receptor (Homo sapiens) (UniProt P10275); experiment: qHTS assay to identify small molecule antagonists of the androgen receptor (AR) signaling pathway using the MDA cell line in the presence of 0.5 nM R1881 (AID 1259243); also: potency is read from the fitted curve at half-maximal effect; nearly all actives have a fitted effect of over 50% in size
Procedure, shortened: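 Inhibition of R1881 (0.5 nM final) induced reporter signal was measured in human MDA-kb2 cells; note the MMTV promoter also responds to GR. Exposure lasted 16 hr at 37C.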

[7] = qHTS assay to identify small molecule agonists of the sonic hedgehog signaling (Shh) pathway (AID 1259368; calls by dose curve; also: potency is read from the fitted curve at half-maximal effect; nearly all actives have a fitted effect of over 15% in size)
Procedure, shortened: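 Luminescent signal was taken as a measure of Gli1-controlled luciferase expression in stably transfected NIH/3T3-derived cells that had been treated for 24 hr with compounds delivered in DMSO.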

[8] = target: Estrogen receptor beta (Homo sapiens) (UniProt Q92731); experiment: qHTS assay to identify small molecule antagonists of the estrogen receptor beta (ER-beta) signaling pathway (AID 1259378; active = well fitted inhibition curve with a large enough effect in the signal ratio in the repeat runs, not every such curve was filed as active; inconclusive = weak or mixed curves, or effect the other way; inactive = no such curve, though single readings can be large or run the other way; the % refers to the signal ratio; also: potency is read from the fitted curve at half-maximal effect; as to activity, negative = inhibition: % is scaled to controls: 0 for no effect and ±100 for the full control effect); details: ER-beta-UAS-bla HEK293T, beta-lactamase FRET ratio, 16 h; activity, negative = inhibition: at 92.4 µM (top of the series) unless noted
Procedure, shortened: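 Antagonist mode: compounds added to beta-lactamase reporter HEK293T ER-beta-UAS cells stimulated with E2 (1nM final), 16 hr at 37C. LiveBLAzer B/G FRET substrate, 2 hours room temperature, fluorescence read-out.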

[9] = qHTS assay to identify small molecule antagonists of the estrogen receptor alpha (ER-alpha) signaling pathway using the BG1 cell line in the presence of 0.1 nM 17-beta-estradiol - cell viability counter screen (AID 1259241); also: potency is read from the fitted curve at half-maximal effect; nearly all actives have a fitted effect of over 40% in size
Procedure, shortened: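 Estradiol-stimulated (0.1 nM) VM7Luc4E2 cells exposed to compounds 22 hr; viability measured by fluorescence of cleaved CellTiter-Fluor substrate after 30 min.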

[10] = qHTS assay to identify small molecule phospholipidosis (PLD) inducers (AID 1259344; active = well fitted curve in the direction sought with a large enough effect; inconclusive = small, poorly fitted or top-dose-only effect, or another doubt; inactive = no such curve, though single readings can be large; an effect the other way counts as inactive or inconclusive; also: potency is read from the fitted curve at half-maximal effect)
Procedure, shortened: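 Fluorescent phospholipid staining (LipidTOX Red) measured by automated microscopy in fixed HepG2 cells after 24 h treatment; nuclei counterstained with Hoechst 33342; amiodarone as reference inducer.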

[11] = qHTS assay to identify small molecule agonists of the sonic hedgehog signaling (Shh) pathway - cell viability counter screen (AID 1259366); also: potency is read from the fitted curve at half-maximal effect; nearly all actives have a fitted effect of over 50% in size
Procedure, shortened: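 Same-well cytotoxicity read. Gli1-Luc reporter 3T3 cells; compounds 24hr, 37C/5% CO2; CellTiter-Fluor fluorescence.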

[12] = qHTS assay to identify small molecule antagonists of the sonic hedgehog signaling (Shh) pathway - cell viability counter screen (AID 1259367); also: potency is read from the fitted curve at half-maximal effect; nearly all actives have a fitted effect of over 55% in size
Procedure, shortened: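 Using CellTiter-Fluor, viability of Gli1-Luc reporter 3T3 cells is read by fluorescence in the wells used for the Shh luciferase assay. Treatment lasts 23 hr with conditioned medium, then reagent 1 hr at 37C.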

[13] = qHTS assay to identify small molecule agonists of the androgen receptor (AR) signaling pathway in the presence of an antagonist - cell viability counter screen (AID 1259379);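 also: MDA-kb2 human breast cancer cells carrying an MMTV luciferase reporter; % is scaled to controls: 0 for no effect and ±100 for the full control effect; nearly all actives have a fitted effect of over 25% in size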
Procedure, shortened: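 In MDA-kb2 cells (human breast carcinoma, MMTV-luciferase), compounds at 15 concentrations plus 3.0uM nilutamide; 16 hr, 37C, 0% CO2; CellTiter-Fluor fluorescence read for viability.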
Tags tell the direction and shape of the fitted curve or compound fluorescence and quenching.

UniProt Q92731, sequence (Q92731 whole entry, looked up): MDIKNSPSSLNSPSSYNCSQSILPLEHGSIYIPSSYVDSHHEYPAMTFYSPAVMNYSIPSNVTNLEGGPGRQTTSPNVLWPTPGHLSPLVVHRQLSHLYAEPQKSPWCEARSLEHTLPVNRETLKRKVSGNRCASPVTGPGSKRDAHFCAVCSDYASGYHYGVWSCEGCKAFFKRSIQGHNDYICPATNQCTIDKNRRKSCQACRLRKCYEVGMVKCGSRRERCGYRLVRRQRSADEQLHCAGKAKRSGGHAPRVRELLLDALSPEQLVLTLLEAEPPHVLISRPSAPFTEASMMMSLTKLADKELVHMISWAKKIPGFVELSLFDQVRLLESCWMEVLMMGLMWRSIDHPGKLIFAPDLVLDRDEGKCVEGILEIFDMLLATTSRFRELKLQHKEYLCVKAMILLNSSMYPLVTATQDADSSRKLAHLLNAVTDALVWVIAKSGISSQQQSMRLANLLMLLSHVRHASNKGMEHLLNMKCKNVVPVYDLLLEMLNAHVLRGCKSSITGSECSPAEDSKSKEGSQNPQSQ
UniProt P10275, sequence (P10275 whole entry, looked up): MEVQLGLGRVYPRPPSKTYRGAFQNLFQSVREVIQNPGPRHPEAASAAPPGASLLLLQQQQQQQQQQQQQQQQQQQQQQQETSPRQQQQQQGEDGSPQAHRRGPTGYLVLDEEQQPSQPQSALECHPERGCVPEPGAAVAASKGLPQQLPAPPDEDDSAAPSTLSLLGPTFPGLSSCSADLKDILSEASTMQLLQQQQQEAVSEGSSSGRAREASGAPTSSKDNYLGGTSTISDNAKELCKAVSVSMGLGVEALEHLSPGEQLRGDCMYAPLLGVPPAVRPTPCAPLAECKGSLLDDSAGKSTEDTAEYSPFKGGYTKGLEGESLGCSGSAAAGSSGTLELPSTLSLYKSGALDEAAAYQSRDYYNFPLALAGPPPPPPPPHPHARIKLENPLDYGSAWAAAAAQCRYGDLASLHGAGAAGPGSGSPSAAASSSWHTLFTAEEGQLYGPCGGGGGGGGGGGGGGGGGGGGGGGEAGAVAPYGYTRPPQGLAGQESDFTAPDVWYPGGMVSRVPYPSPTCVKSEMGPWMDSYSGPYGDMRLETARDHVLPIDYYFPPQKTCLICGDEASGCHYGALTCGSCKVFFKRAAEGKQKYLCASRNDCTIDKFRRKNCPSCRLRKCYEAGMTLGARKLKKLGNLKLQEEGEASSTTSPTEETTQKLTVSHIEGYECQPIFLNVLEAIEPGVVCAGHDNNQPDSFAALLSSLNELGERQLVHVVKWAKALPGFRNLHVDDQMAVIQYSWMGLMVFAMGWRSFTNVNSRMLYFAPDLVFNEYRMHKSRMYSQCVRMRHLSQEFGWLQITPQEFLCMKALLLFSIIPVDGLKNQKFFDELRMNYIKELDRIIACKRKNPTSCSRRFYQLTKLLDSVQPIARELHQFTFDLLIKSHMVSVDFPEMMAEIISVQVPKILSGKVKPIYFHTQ
UniProt P03372, sequence (P03372 whole entry, looked up): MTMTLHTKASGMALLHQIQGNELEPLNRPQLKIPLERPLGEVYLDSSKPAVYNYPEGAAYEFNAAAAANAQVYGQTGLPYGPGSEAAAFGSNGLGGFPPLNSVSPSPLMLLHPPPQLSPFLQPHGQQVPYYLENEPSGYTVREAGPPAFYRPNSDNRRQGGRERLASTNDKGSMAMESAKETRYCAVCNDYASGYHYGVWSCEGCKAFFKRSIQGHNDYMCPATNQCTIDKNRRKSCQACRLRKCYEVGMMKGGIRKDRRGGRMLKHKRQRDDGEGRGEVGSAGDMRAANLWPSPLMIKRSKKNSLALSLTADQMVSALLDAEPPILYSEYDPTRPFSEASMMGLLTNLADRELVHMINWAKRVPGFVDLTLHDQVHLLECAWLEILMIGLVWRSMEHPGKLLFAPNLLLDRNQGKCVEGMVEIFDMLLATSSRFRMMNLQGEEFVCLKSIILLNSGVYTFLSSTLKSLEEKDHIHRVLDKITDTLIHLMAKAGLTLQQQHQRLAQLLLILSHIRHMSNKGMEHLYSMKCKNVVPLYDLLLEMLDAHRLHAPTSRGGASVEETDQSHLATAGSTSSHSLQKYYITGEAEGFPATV

With `CN1CCC(O)(c2ccc(F)cc2)C(C(=O)c2ccc(F)cc2)C1` (stereo not drawn) the Potency [1] was inconclusive: 26.8 µM [activator, single point].

For `CCOP(=O)(OCC)Oc1nc(Cl)c(Cl)cc1Cl`, the Potency [2] was inconclusive: 68.2 µM [inhibitor, single point], the Potency [3] was inconclusive: 68.2 µM [inhibitor, partial curve, poor fit] and the Potency [4] was inconclusive: 54.2 µM [inhibitor, partial curve]. For the same compound, the Potency [5] was inconclusive: 30.5 µM [rising, partial curve].

With `Sc1ccccc1Cl` the Potency [1] was inconclusive: 26.8 µM [activator, single point].

In the case of `CCCCCCC[CH2][Sn]([Cl])([Cl])[CH2]CCCCCCC`, the Potency [6] is reported as inconclusive: 68.5 µM [inhibitor, single point], the Potency [7] is reported as inconclusive: 68.5 µM [activator, partial curve, poor fit] and the Potency [8] is reported as active: 48.5 µM.

For `CCCN(CCC)CCc1c[nH]c2ccccc12`, the Potency [9] was inconclusive: 21.4 µM [cytotoxic, partial curve, poor fit], the Potency [10] was inconclusive: 28.2 µM [activator, single point] and the activity, negative = inhibition [8] was inconclusive: 0.535%.

In the case of `CC(C)(c1ccc(OCC2CO2)cc1)c1ccc(OCC2CO2)cc1` (stereo not drawn), the Potency [6] is reported as inconclusive: 69.5 µM [inhibitor], the Potency [2] is reported as inconclusive: 78 µM [inhibitor, single point] and the Potency [11] is reported as inconclusive: 69.5 µM [cytotoxic, single point]. For the same compound, the Potency [12] was inconclusive: 69.5 µM [cytotoxic, single point], the Potency [4] was active: 15.6 µM and inconclusive: 61.1 µM [inhibitor, single point] and the Potency [8] was inconclusive: 55.2 µM [rising, partial curve] and inconclusive: 54.5 µM [rising, partial curve].

For `COC1=CC(=O)O[C@@H](CCc2ccccc2)C1`, the Potency [9] was inconclusive: 80.1 µM [rising, partial curve, poor fit], the Potency [3] was inconclusive: 56.7 µM [inhibitor, partial curve, poor fit] and the Potency [5] was inconclusive: 25.3 µM [rising, partial curve]. For the same compound, the Potency [13] was “inactive”.

For `S=C=Nc1cccc2ccccc12`, the Potency [9] was active: 30.3 µM, the Potency [6] was inconclusive: 24.1 µM [inhibitor, full curve] and the Potency [12] was inconclusive: 67.9 µM [cytotoxic, single point]. For the same compound, the Potency [4] was inconclusive: 24.1 µM [inhibitor, partial curve, poor fit], the Potency [5] was inconclusive: 67.9 µM [rising, single point] and the Potency [8] was inconclusive: 67.9 µM [rising, single point].
